Hit rate of the full screen: of about 230,000 compounds, about 3,600 (1.6%) were called active. Inconclusive means that the source gave no clear call. Such entries were picked first, then a sample of the others. Calls come from the whole dose curve; as a rule, active = well fitted inhibition curve with a large enough effect (not every such curve was filed as active); inconclusive = small, poorly fitted or top-dose-only effect, or another doubt; inactive = no such curve, though single readings can be large or run the other way. Where the call is inconclusive, the potency comes from a doubtful curve fit.
Each compound was assayed against Lysine-specific demethylase 4E (Homo sapiens) (UniProt B2RXH2) (assay: qHTS Assay for Inhibitors of Human Jumonji Domain Containing 2E (JMJD2E)). Settings: JMJD2E catalytic domain, FDH-coupled NADH fluorescence (FDH is formaldehyde dehydrogenase); series mostly up to 57.1 µM.
Sequence of UniProt B2RXH2 (B2RXH2 whole entry, looked up, the tested form may be a part): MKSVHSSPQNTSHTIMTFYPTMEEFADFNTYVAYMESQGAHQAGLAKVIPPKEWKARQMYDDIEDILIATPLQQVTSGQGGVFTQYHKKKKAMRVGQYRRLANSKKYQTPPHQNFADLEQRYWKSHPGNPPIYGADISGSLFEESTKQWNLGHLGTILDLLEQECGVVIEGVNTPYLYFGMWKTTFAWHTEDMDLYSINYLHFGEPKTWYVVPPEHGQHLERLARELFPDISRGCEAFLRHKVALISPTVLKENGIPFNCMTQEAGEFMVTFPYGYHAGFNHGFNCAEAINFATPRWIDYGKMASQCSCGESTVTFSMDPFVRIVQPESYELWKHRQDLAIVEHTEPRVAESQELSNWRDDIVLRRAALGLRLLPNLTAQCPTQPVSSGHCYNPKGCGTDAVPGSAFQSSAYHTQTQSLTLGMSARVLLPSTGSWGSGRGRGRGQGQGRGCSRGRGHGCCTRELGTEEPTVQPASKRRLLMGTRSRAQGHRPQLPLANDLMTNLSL
With `COc1cc(O)c(C(CCN2CCCCC2)c2ccc3c(c2)OCO3)c(OC)c1` (stereo unspecified) the Potency was inconclusive: 39.8 µM [inhibitor, single point]. For `CCOC(=O)C1CCCN(C(=O)CNC(=O)Cn2ccc3ccccc3c2=O)C1` (stereo unspecified), the Potency was inconclusive: 20 µM [inhibitor, partial curve]. `Cc1ccc(CNC(=O)c2ccc(N3CCc4ccccc43)c([N+](=O)[O-])c2)cc1` was tested, and the Potency was “inactive”. With `CC(C)(C)c1ccc(C(=O)N2CCNCC2)cc1` the Potency was “inactive”. For `OC1CCCN(c2c3c(nc4cc(-c5cccc(Cl)c5)nn24)CCC3)C1` (stereo unspecified), the Potency was inconclusive: 6.31 µM [inhibitor, single point]. For `C[n+]1cccc2ccc3c(c21)OC(N)=C(C#N)C3c1ccccc1` (stereo unspecified), the Potency was active: 15.8 µM. `O=C(CCC(=O)c1cccs1)c1cccs1` was tested, and the Potency was “inactive”. In the case of `COc1ccccc1N(O)C1CC(=O)N(c2ccc(F)cc2)C1=O` (stereo unspecified), the Potency is reported as inconclusive: 39.8 µM [inhibitor, single point]. With `O=C(Nc1nnc(-c2ccco2)o1)c1cccc(Cl)c1` the Potency was inconclusive: 31.6 µM [inhibitor, single point]. For `CNC(=O)CSc1nc(-c2ccccc2)c(-c2ccccc2)[nH]1`, the Potency was inconclusive: 35.5 µM [inhibitor, single point]. In the case of `Cc1sc2ncnc(OCC(=O)Nc3ccc4c(c3)OCCO4)c2c1C`, the Potency is reported as “inactive”. With `COc1c2c(cc3oc(C)cc(=O)c13)OC(C(C)(C)OC1OC(CO)C(O)C(O)C1O)C2` (stereo unspecified) the Potency was inconclusive: 31.6 µM [inhibitor, partial curve]. `CCC(C(=O)NC1CCCCC1)N(Cc1cccs1)C(=O)c1snc(C(N)=O)c1N` (stereo unspecified) was tested, and the Potency was inconclusive: 35.5 µM [inhibitor, single point]. With `Cn1cc(/C=C2\SC(=O)NC2=S)c2ccccc21` the Potency was “inactive”. For `Oc1cccc2ccc(/C=C/c3cccs3)nc12`, the Potency was inconclusive: 39.8 µM [inhibitor, single point]. For `COCCCNC(=O)/C(C#N)=C/c1ccc(OCC(=O)O)c(OC)c1`, the Potency was inconclusive: 17.8 µM [inhibitor, partial curve]. In the case of `COc1ccc(/C(C)=N\Nc2nc(-c3ccccc3)cc(=O)[nH]2)cc1`, the Potency is reported as inconclusive: 31.6 µM [inhibitor, partial curve]. For `COc1ccc2c(-c3ccccc3)cc(=O)[nH]c2c1`, the Potency was inconclusive: 39.8 µM [inhibitor, single point]. With `Cc1ccc(COC(=O)c2nn(-c3ccccc3)nc2N)cc1` the Potency was inconclusive: 31.6 µM [inhibitor, partial curve]. With `O=C(COc1cccc(F)c1)Nc1ccc2[nH]c(=O)[nH]c2c1` the Potency was inconclusive: 35.5 µM [inhibitor, single point]. `NC(=O)c1c(NC(=O)CN2C(=O)CCC2=O)sc2c1CCCCC2` was tested, and the Potency was “inactive”. `NS(=O)(=O)c1ccc(NC(=O)COc2ncnc3c2cnn3-c2ccccc2)cc1` was tested, and the Potency was “inactive”. In the case of `CCn1c(CSc2ncccn2)nnc1SCC(=O)N1CCc2ccccc21`, the Potency is reported as “inactive”. With `CCc1ccc2c(c1)C1(NN=C(c3cccc4ccccc34)S1)C(=O)N2` (stereo unspecified) the Potency was inconclusive: 39.8 µM [inhibitor, single point]. With `C=CCN1CN(S(=O)(=O)c2cccs2)c2nc3ccccc3nc21` the Potency was inconclusive: 22.4 µM [inhibitor, partial curve]. In the case of `CCN(CC)CCNC(=O)c1c(C)n(-c2ccccc2)c2cc(Br)c(OC)cc12`, the Potency is reported as “inactive”. With `COC(=O)c1ccc(C(=O)OC)c(NC(=S)N2CCN(c3ccccn3)CC2)c1` the Potency was inconclusive: 8.91 µM [inhibitor, full curve]. For `CC(=O)c1c(C)oc2ccc(N(C(C)=O)S(=O)(=O)c3ccc(Cl)c([N+](=O)[O-])c3)cc12`, the Potency was “inactive”. With `Cc1ccc(CN2C(=O)N/C(=C/c3ccc4c(c3)n(C)c(=O)n4C)C2=O)cc1` the Potency was inconclusive: 8.91 µM [inhibitor, partial curve]. `O=c1ccc2ccc(Oc3ccc([N+](=O)[O-])cc3Cl)cc2o1` was tested, and the Potency was inconclusive: 25.1 µM [inhibitor, partial curve]. For `Cc1ccc(S(=O)(=O)Nc2nc3ccccc3nc2NCc2ccco2)cc1C`, the Potency was inconclusive: 28.2 µM [inhibitor, partial curve]. In the case of `CCOc1ccc(N=Nc2cc(C(C)C)ccc2O)cc1`, the Potency is reported as “inactive”. In the case of `Cc1ccc(S(=O)(=O)c2c(N)n(CCN3CCOCC3)c3nc4ccccc4nc23)cc1C`, the Potency is reported as inconclusive: 25.1 µM [inhibitor, partial curve]. With `CC(=O)c1cn(CC(=O)Nc2ccc(C)cc2C)c2ccccc12` the Potency was “inactive”. `CCN(CC)c1ccc(C(=O)NNC(=O)CCl)cc1` was tested, and the Potency was inconclusive: 28.2 µM [inhibitor, single point]. `CCCCN1C(=O)c2ccc(C(=O)Nc3ccccc3N3CCOCC3)cc2C1=O` was tested, and the Potency was “inactive”. For `Oc1ccc2ccccc2c1C1Nc2cccc3cccc(c23)N1`, the Potency was active: 28.2 µM. In the case of `CCn1cc(CNC(=O)CSc2nc(-c3ccc(OC)c(OC)c3)cc(C(F)(F)F)n2)c(C)n1`, the Potency is reported as inconclusive: 28.2 µM [inhibitor, partial curve]. For `Cc1c(/C=N/NC(=O)c2cccnc2)c2ccccc2n1Cc1ccccc1`, the Potency was inconclusive: 25.1 µM [inhibitor, partial curve]. In the case of `COc1ccc(C2CC(c3ccccc3)Nc3nc(NC(=O)c4cccs4)nn32)cc1` (stereo unspecified), the Potency is reported as inconclusive: 35.5 µM [inhibitor, single point]. In the case of `C=CCn1c(O)c(N=O)c2ccccc21`, the Potency is reported as “inactive”. With `CCOc1ccccc1NC(=O)CN(C)S(=O)(=O)c1ccc(OC)c(C)c1` the Potency was “inactive”. In the case of `O=CN1CCc2scc[n+]2-c2ccccc21`, the Potency is reported as inconclusive: 39.8 µM [inhibitor, single point]. In the case of `O=C(CN1CC(=O)Nc2ccccc21)Nc1ccc(F)c(F)c1`, the Potency is reported as inconclusive: 25.1 µM [inhibitor, partial curve]. With `NCCC[C@@H](CC(=O)N[C@@H]1CCCC[C@H]1C(=O)N[C@H](CC(=O)N[C@@H](CCC(=O)O)CC(=O)O)Cc1c[nH]c2ccccc12)NC(=O)C[C@H](CO)NC(=O)[C@@H]1CNCC[C@H]1N` the Potency was “inactive”. `Cc1ccc(CNC(=O)CSc2ncccn2)cc1` was tested, and the Potency was “inactive”.

From PubChem BioAssay AID2147 (National Center for Advancing Translational Sciences (NCATS), 2009)
Note: nearly all actives have a fitted effect of over 50% in size.
Potency is the fitted concentration of half-maximal effect; tags give direction and shape of the fitted curve.
